Some of the results follow. Sequences were assembled here from the parent chain. Values near 0.05 are background.
B1: TEV protease; numbered along this chain (parent)
chain: MGESLFKGPRDYNPISSSICHLTNESDGHTTSLYGIGFGPFIITNKHLFRRNNGTLVVQSLHGVFKVKDTTTLQQHLVDGRDMIIIRMPKDFPPFPQKLKFREPQREERICLVTTNFQTKSMSSMVSDTSCTFPSGDGIFWKHWIQTKDGQCGSPLVSTRDGFIVGIHSASNFTNTNNYFTSVPKNFMELLTNQEAQQWVSGWRLNADSVLWGGHKVFMVKPEEPFQPVKEATQL

Variants of: B1
Test: raw area under fraction-flipped curve 0-4 h after induction (AUC4h, not background-subtracted), DNA-recorder readout of cleavage of the substrate (dimensionless); higher = more cleavage of the substrate by the protease variant
Details: temperature: 34 °C; time window: 0-4 h after rhamnose induction
Experimental: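 In vivo DNA recorder in E. coli TOP10(DE3) ΔrhaA at 34 °C. Each TEVp single-site mutant (parent TEVp 0) is paired with a single-site variant of the 7-mer TEVs (canonical ENLYFQ|S). The substrate sits between flexible linkers in a Bxb1-sfGFP-TEVs-SsrA fusion, so cleavage stabilises Bxb1 and speeds flipping of a recombination array, read by NGS. The value is the raw area under the fraction-flipped curve over 0-4 h after rhamnose induction (AUC4h), with ≥20 reads per time point. It is not background-subtracted; inactive controls average about 0.047.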
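Also: Bxb1 expression induced with 0.2% (w/v) L-rhamnose at OD600 near 0.5, cultures sampled hourly, flipped fraction per protease–substrate barcode pair counted by paired-end Illumina sequencing.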

| Variant | area with substrate ENLYAQS | area with substrate ENLYDQS | area with substrate ENLYEQS | area with substrate ENLYGQS | area with substrate ENLYHQS | area with substrate ENLYIQS | area with substrate ENLYKQS | area with substrate ENLYMQS | area with substrate ENLYNQS | area with substrate ENLYPQS | area with substrate ENLYQQS | area with substrate ENLYRQS | area with substrate ENLYWQS | area with substrate ENLYSQS | area with substrate ENLYTQS | area with substrate ENLYVQS | area with substrate ENLYCQS | area with substrate ENLYLQS | area with substrate ENLYYQS |
| --- | --- | --- | --- | --- | --- | --- | --- | --- | --- | --- | --- | --- | --- | --- | --- | --- | --- | --- | --- |
| T176M | 0.0736 | 0.0577 | 0.0655 | 0.043 | 0.0549 | 0.0887 | 0.0652 | 0.06 | 0.0648 | 0.0695 | 0.0662 | 0.0712 | 0.063 |  |  |  |  |  |  |
| M88G | 0.0404 | 0.0605 | 0.0459 | 0.0253 |  |  |  | 0.0469 | 0.0545 | 0.0454 | 0.0299 | 0.0642 | 0.0644 | 0.0551 | 0.0538 | 0.0754 |  |  |  |
| P184W | 0.0611 | 0.0574 | 0.0716 | 0.0602 | 0.0804 |  | 0.0687 | 0.0645 | 0.0618 | 0.048 |  |  |  | 0.064 |  | 0.0595 | 0.0721 | 0.0604 | 0.0579 |
| T44A | 0.0684 | 0.0572 | 0.0581 | 0.0641 | 0.0649 | 0.0809 | 0.0302 | 0.0599 | 0.0599 | 0.0676 | 0.0658 | 0.055 | 0.0562 | 0.0636 | 0.0783 | 0.0893 | 0.0742 | 0.0569 | 0.0653 |
| C152K | 0.0421 | 0.0738 |  | 0.0622 | 0.067 | 0.0613 | 0.0541 | 0.0532 |  | 0.0423 | 0.0581 | 0.0575 |  | 0.0515 |  | 0.0591 |  |  |  |
| P40C | 0.0847 | 0.0359 | 0.0573 | 0.0649 | 0.0731 | 0.131 | 0.0625 | 0.0841 | 0.0577 | 0.0803 | 0.0638 | 0.0551 | 0.0821 | 0.0864 | 0.08 | 0.109 | 0.0876 | 0.102 |  |
| G54I | 0.0591 | 0.054 | 0.0576 | 0.0464 | 0.0596 | 0.0671 | 0.0467 | 0.0644 | 0.0605 | 0.0574 | 0.0443 | 0.0586 |  | 0.059 | 0.0651 |  |  | 0.0546 |  |
| S32A | 0.0956 | 0.0767 | 0.0579 | 0.0644 | 0.0617 |  | 0.0582 | 0.0945 | 0.0785 | 0.0772 | 0.0437 | 0.0629 | 0.0764 | 0.0643 | 0.0736 | 0.121 | 0.088 | 0.0538 |  |
| D11W | 0.0615 | 0.0646 | 0.0561 | 0.0619 | 0.0657 | 0.146 | 0.0627 | 0.103 | 0.0883 | 0.0678 |  |  |  | 0.0738 |  | 0.0882 |  |  |  |
| E224H | 0.0722 | 0.0593 |  | 0.0521 |  |  | 0.026 |  | 0.0863 |  |  | 0.0887 | 0.0786 | 0.0809 | 0.072 |  | 0.0884 |  | 0.0756 |
| E224C | 0.0797 |  | 0.0666 | 0.0625 | 0.0593 | 0.104 | 0.0688 | 0.0909 | 0.0648 | 0.0588 | 0.0231 | 0.069 | 0.082 | 0.0774 | 0.0263 | 0.0956 |  | 0.078 | 0.0537 |
| S32R | 0.0794 | 0.0545 | 0.0803 | 0.0831 | 0.0671 | 0.134 | 0.0522 | 0.0773 | 0.0638 | 0.0736 | 0.0641 | 0.063 | 0.0574 | 0.0759 | 0.0856 | 0.0984 | 0.0913 |  | 0.0707 |
| V157F | 0.0722 | 0.0505 | 0.0515 | 0.0678 | 0.0585 | 0.0918 | 0.0141 | 0.0771 | 0.0534 |  |  | 0.05 | 0.0777 | 0.051 | 0.0733 | 0.0875 | 0.0538 |  |  |
| P93S | 0.0684 |  |  | 0.0715 | 0.0701 |  | 0.0603 | 0.0657 |  | 0.0615 |  | 0.0566 |  | 0.0832 | 0.0458 | 0.115 | 0.0841 |  | 0.0574 |
| R204K | 0.0932 | 0.0575 | 0.0513 |  | 0.0628 |  | 0.0644 | 0.0888 | 0.0706 |  | 0.0611 | 0.061 |  | 0.0818 | 0.0841 |  | 0.0839 |  |  |
| S16Y | 0.0817 | 0.0607 | 0.0793 | 0.0605 | 0.0643 | 0.1 | 0.0498 | 0.0774 | 0.0583 | 0.0479 | 0.0716 | 0.0728 | 0.0651 | 0.0937 | 0.0661 | 0.127 |  | 0.068 |  |
| S32Y | 0.0758 | 0.0592 | 0.0574 | 0.0597 | 0.0688 | 0.111 | 0.0534 | 0.0781 | 0.0694 | 0.0865 |  | 0.0644 | 0.0764 | 0.112 |  | 0.101 |  | 0.0915 | 0.0577 |
| G136W | 0.0605 | 0.061 | 0.075 | 0.0618 | 0.0549 | 0.104 | 0.0588 | 0.0707 | 0.0555 | 0.0676 | 0.0738 | 0.0629 | 0.0773 | 0.084 | 0.0639 | 0.0879 |  | 0.076 |  |
| I43R | 0.0379 | 0.0378 | 0.0489 | 0.0445 | 0.0419 | 0.0693 | 0.068 |  | 0.053 |  | 0.052 | 0.0364 | 0.0528 | 0.0472 |  | 0.038 | 0.0441 |  | 0.0423 |
| C152A | 0.0695 | 0.0617 | 0.0558 | 0.0586 | 0.0527 | 0.0704 |  |  | 0.0657 |  | 0.0539 | 0.0578 | 0.0579 |  | 0.145 | 0.0612 | 0.061 |  |  |
| G136T | 0.08 | 0.0575 | 0.0678 | 0.0654 | 0.0697 | 0.104 | 0.0781 | 0.0695 | 0.0621 | 0.0755 | 0.0552 | 0.0717 | 0.0704 | 0.0705 | 0.0657 | 0.1 | 0.0833 |  | 0.0572 |
| T192V | 0.0852 |  | 0.0809 | 0.0685 |  | 0.118 | 0.0584 | 0.0952 |  | 0.0805 |  |  | 0.0706 | 0.0869 | 0.0955 |  |  |  | 0.0664 |
| H168G | 0.064 | 0.0757 |  |  | 0.0671 |  |  | 0.0642 | 0.0508 | 0.0593 |  |  |  | 0.0569 | 0.0865 |  |  | 0.055 |  |
| D161V | 0.0546 | 0.0514 | 0.0497 | 0.0572 | 0.0534 | 0.0461 | 0.0527 | 0.0475 | 0.0549 | 0.0493 | 0.0691 | 0.0558 | 0.0658 |  | 0.048 | 0.0586 | 0.0546 |  | 0.0624 |

Source: the supplement of paper PMC12217912
